According to PubChem BioAssay AID504332 (National Center for Advancing Translational Sciences (NCATS), 2011):
Among all 350,000 compounds or so, about 31,000 (8.9%) were called active. The shares of active, inactive and inconclusive entries below differ from those in the screen. Calls come from the whole dose curve; as a rule, active = well fitted inhibition curve with a large enough effect; inconclusive = small, poorly fitted or top-dose-only effect; inactive = no such curve, though single readings can be large or run the other way. Potencies of inconclusive entries are doubtful fits and often do not repeat.

Molecular target: Histone-lysine N-methyltransferase EHMT2 (Homo sapiens) (UniProt Q96KQ7)
Assay: qHTS Assay for Inhibitors of Histone Lysine Methyltransferase G9a; note: nearly all actives have a fitted effect of over 75% in size
Conditions: G9a H3K9 monomethylation, AlphaScreen, 2 h; activity, negative = inhibition: at 59 µM (top of the series) unless noted
Procedure, shortened: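 Step 1: enzyme (final 20 nM) with compound, 15 min RT. Step 2: substrate peptide 500 nM and SAM 20 uM, 2 h RT. Step 3: anti-H3K9me1 antibody and AlphaScreen beads, 10 min, then plate read.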
% is set by controls: 0 for no effect and ±100 for the full control effect; potency is the fitted concentration of half-maximal effect; tags give direction and shape of the fitted curve.

UniProt Q96KQ7, sequence (Q96KQ7 whole entry, looked up): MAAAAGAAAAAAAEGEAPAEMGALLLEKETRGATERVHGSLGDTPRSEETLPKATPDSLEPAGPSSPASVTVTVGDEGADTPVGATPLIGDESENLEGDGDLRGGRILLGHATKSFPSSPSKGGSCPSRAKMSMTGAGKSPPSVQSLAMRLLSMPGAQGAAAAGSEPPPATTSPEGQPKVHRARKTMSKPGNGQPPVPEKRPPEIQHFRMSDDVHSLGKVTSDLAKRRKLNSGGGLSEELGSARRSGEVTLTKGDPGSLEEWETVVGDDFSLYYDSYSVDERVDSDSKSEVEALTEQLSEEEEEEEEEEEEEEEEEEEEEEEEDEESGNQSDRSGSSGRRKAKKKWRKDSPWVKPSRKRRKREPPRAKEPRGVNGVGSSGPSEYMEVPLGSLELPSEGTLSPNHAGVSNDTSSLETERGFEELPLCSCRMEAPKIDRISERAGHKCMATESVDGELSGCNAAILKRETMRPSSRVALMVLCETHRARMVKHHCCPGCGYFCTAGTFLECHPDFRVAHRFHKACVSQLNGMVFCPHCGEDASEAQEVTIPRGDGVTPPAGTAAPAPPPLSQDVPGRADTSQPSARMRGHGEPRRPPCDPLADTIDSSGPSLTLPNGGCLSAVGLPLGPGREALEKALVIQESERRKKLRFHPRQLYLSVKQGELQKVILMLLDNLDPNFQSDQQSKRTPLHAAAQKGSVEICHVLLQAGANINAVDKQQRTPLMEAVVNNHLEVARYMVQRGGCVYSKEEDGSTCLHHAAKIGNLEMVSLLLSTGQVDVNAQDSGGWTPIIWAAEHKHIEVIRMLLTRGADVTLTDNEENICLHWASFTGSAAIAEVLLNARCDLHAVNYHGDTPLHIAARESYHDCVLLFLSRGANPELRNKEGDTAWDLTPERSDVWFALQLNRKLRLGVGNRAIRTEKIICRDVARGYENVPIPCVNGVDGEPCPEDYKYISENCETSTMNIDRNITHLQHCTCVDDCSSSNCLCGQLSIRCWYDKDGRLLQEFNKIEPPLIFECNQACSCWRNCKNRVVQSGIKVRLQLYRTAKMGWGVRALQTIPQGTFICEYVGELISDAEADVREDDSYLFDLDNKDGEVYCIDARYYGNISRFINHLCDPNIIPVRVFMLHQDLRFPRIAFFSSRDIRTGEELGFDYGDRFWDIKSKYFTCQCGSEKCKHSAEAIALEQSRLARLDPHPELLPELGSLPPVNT

Compound | Potency | activity, negative = inhibition
CCC(C)NCCOCCOc1cc(C)c(Cl)c(C)c1 (stereo unspecified) | inconclusive: 39.8 µM [inhibitor, single point] | –
CN1CCN(C(=O)c2ccc3c(c2)N(Cc2ccc(Cl)cc2)C(=O)c2ccccc2S3=O)CC1 (stereo unspecified) | active: 79.4 µM | –
Cc1ccc2cc(C)c3nnc(SCC(=O)N4CCCc5ccccc54)n3c2c1C | inconclusive: 4.47 µM [inhibitor, full curve, poor fit] | –
CCC(NC(=O)c1ccccc1NC(=O)c1ccco1)C(=O)O (stereo unspecified) | inconclusive: 70.8 µM [inhibitor, single point] | –
Cc1ccccc1NC(=O)CSc1ccsc1[N+](=O)[O-] | inconclusive: 25.1 µM [inhibitor, single point] | –
COc1cc(C(C(=O)NC2CCCCC2)N(C(=O)Cc2c[nH]c3ccccc23)c2ccc(C)cc2)cc(OC)c1OC (stereo unspecified) | inconclusive: 2 µM [inhibitor, full curve] | –
O=C(COC(=O)c1cc([N+](=O)[O-])ccc1N1CCCC1)Nc1ccccc1OC(F)F | inconclusive: 44.7 µM [inhibitor, partial curve, poor fit] | –
O=C(CCN1C(=O)c2ccccc2C1=O)NC(=S)Nc1ccccc1 | inconclusive: 28.2 µM [inhibitor, single point] | –
Cc1ccc(O)c(C(=O)c2cnc3c(c2)CN(C)C(=O)N3)c1 | inconclusive: 39.8 µM [inhibitor, partial curve, poor fit] | –
COc1ccc(-c2cc3ccc(O)cc3oc2=O)cc1OC | – | inactive: 56.3% [at 102 µM]
O=C(NC(=S)Nc1ccc(NC(=O)c2cccs2)cc1)c1ccc([N+](=O)[O-])cc1 | inconclusive: 79.4 µM [inhibitor, partial curve, poor fit] | –
O=C(CSc1nc2ccsc2c(=O)n1-c1ccc(Br)cc1)NCc1ccccc1 | – | inactive: -6.76%
COCCn1c(=NC(=O)CSCC(=O)NC2CCCCC2)sc2cc(OC)ccc21 | inconclusive: 89.1 µM [inhibitor, single point] | –
N#Cc1ccc(CSc2nnc(NC(=O)C3CC(=O)N(c4ccc5c(c4)OCCO5)C3)s2)cc1 (stereo unspecified) | inconclusive: 31.6 µM [inhibitor, single point] | –
CCOc1ccc(NC(=O)c2cccnc2C(=O)O)cc1 | inconclusive: 3.16 µM [inhibitor, full curve, poor fit] | –
Cc1cc(C)c(NC(=O)C(C)N2CCCCCC2)c(C)c1 (stereo unspecified) | inconclusive: 79.4 µM [inhibitor, single point] | –
CCc1cc(C(=O)c2ccc(C)cc2)c(NC(=O)CCl)s1 | inconclusive: 79.4 µM [inhibitor, single point] | –
C[C@]12CCC(=O)C=C1CC[C@@H]1[C@@H]2[C@@H](O)C[C@]2(C=O)[C@@H](C(=O)CO)CC[C@@H]12 | – | inactive: -2.12%
O=C(CCc1c[nH]c2ccccc12)N1CCN(S(=O)(=O)c2ccccc2)CC1 | inconclusive: 89.1 µM [inhibitor, partial curve, poor fit] | –
O=C(Cn1c(C(F)(F)F)nc2ccccc21)N/N=C/c1ccco1 | inconclusive: 31.6 µM [inhibitor, partial curve, poor fit] | –
COc1ccc(NC(=O)C2CCN(C(=O)c3ccc(OC)cc3)CC2)cc1 | inconclusive: 1 µM [inhibitor, full curve, poor fit] | –
CCC1NC(C(=O)O)Cc2c1[nH]c1ccccc21 (stereo unspecified) | – | inactive: -4.01% [at 12.7 µM]
Oc1ccc(NCc2cccs2)cc1 | active: 39.8 µM | –
COc1cc(OC)cc(-c2nnc(SCC(=O)Nc3ccc(C(=O)O)cc3)s2)c1 | inconclusive: 70.8 µM [inhibitor, partial curve] | –

Compound | Potency | activity, negative = inhibition
Cc1c(C(=O)N2CCCCCC2)c(S(=O)(=O)Nc2cccc(F)c2)c(C)n1C | – | inactive: 7.51% [at 102 µM]
O=C(NC1CCCCC1)c1ccc(CSc2nc3ccncc3n2Cc2ccccc2F)cc1 | – | inactive: -30.3%
COc1cccc(C(=O)NCCS(=O)(=O)N2CCN(C(=O)c3ccco3)CC2)c1 | active: 14.1 µM | –
O=c1[nH]c(CN(CCc2ccccc2)S(=O)(=O)c2ccc(Cl)cc2)nc2ccccc12 | – | inactive: 9.65%
COCCn1c(=S)[nH]c2ccccc21 | active: 39.8 µM | –
O=C(NCc1n[nH]c(=S)n1-c1ccc(Br)cc1)c1ccc(S(=O)(=O)N2CCCC2)cc1 | active: 2.51 µM | –
CCOc1ccc2nc(N3CCC(C(=O)Nc4cc(C)ccc4C)CC3)sc2c1 | – | inactive: -3.63%
CCOC(=O)c1sc(NC(=O)CSc2nnc(-c3ccc(OC)cc3)n2CCOC)nc1C | inconclusive: 22.4 µM [inhibitor, single point] | –
CN(C)Cc1cccc([N+](=O)[O-])c1O | active: 50.1 µM | –
O=C(c1ccncc1)N1N=C(c2ccc(Br)cc2)CC1c1ccccc1O (stereo unspecified) | – | inactive: -21.2% [at 102 µM]
O=C(O)Cc1sc(N/N=C\c2ccccc2)nc1-c1ccccc1 | active: 3.16 µM | –
Cc1cccc(C(=O)OC(C)C(=O)Nc2ccc(S(=O)(=O)Nc3ncccn3)cc2)c1C (stereo unspecified) | inconclusive: 3.98 µM [inhibitor, single point] | –
O=C(NCCCN1CCOCC1)C1CCN(S(=O)(=O)c2ccccc2)CC1 | – | inactive: 7.97% [at 102 µM]
Oc1c(C(c2ccccc2Cl)N2CCN(Cc3ccccc3)CC2)sc2nc(-c3ccco3)nn12 (stereo unspecified) | inconclusive: 17.8 µM [inhibitor, single point] | –
CC(=O)c1ccc(NC(=O)CN2C(=O)NC(C)(c3ccc4c(c3)OCCO4)C2=O)cc1 (stereo unspecified) | inconclusive: 8.91 µM [inhibitor, single point] | –
CCCCC(=O)OC1CCC2C3CCc4cc(O)ccc4C3CC[C@]12C (stereo partly specified) | – | inactive: -24.2% [at 2.33 µM]
COc1ccc(-c2noc(CCC(=O)NCc3cccnc3)n2)cc1OC | active: 70.8 µM | –
COc1cccc(C(=O)OCC(=O)Nc2sc3c(c2C(N)=O)CCC3)c1O | inconclusive: 35.5 µM [inhibitor, single point] | –
CCOC(=O)CN1NC2(CCCCC2)NC1=S | inconclusive: 8.91 µM [inhibitor, single point] | –
Cc1ccccc1Oc1cc(-n2ncc(Cl)c(Cl)c2=O)ncn1 | – | inactive: 25.1%
S=C(Nc1cccnc1)N1CCCCC1 | – | inactive: 2.22% [at 102 µM]
CC(C)n1c(SCc2ccccc2F)nc2c1c(=O)n(C)c(=O)n2C | inconclusive: 89.1 µM [inhibitor, single point] | –
Cc1cccc(C2NC(=O)c3ccccc3O2)c1 (stereo unspecified) | – | inactive: 16% [at 102 µM]
CC(C)Oc1ccc(CNC(=O)C2CCN(C(=O)N3CC(C)Oc4ccccc43)CC2)cc1 (stereo unspecified) | inconclusive: 35.5 µM [inhibitor, partial curve, poor fit] | –

Compound | Potency | activity, negative = inhibition
O=C(NCCCN1CCN(CCCNC(=O)c2cc([N+](=O)[O-])ccc2Cl)CC1)c1cc([N+](=O)[O-])ccc1Cl | inconclusive: 25.1 µM [inhibitor, single point] | –
CC(C)N(Cc1nccn1C)C(=O)CC1C(=O)NCCN1Cc1ccc(F)cc1 (stereo unspecified) | inconclusive: 28.2 µM [inhibitor, full curve, poor fit] | –
CN(C)C(=O)CCSc1nnc(-c2ccco2)o1 | – | inactive: -5.49% [at 102 µM]
Cc1ccccc1C(=O)Nc1nc(-c2ccc(Br)cc2)ns1 | – | inactive: -1.02%
CC(C)Oc1ccc(CCNC(=O)CC2C(=O)NCCN2C)cc1 (stereo unspecified) | inconclusive: 22.4 µM [inhibitor, single point] | –
COc1cc(OC)c(NC(=O)C2CCCN2C(=O)OCc2ccccc2)cc1Cl (stereo unspecified) | – | inactive: 16.8% [at 102 µM]
O=[N+]([O-])c1ccc(N2CCN(CC(O)COc3ccccc3)CC2)cc1 (stereo unspecified) | – | inactive: -0.815% [at 102 µM]
CC1C(=O)N2CCCc3cc(NS(=O)(=O)c4ccccc4)cc1c32 (stereo unspecified) | inconclusive: 63.1 µM [inhibitor, single point] | –
COCCn1nnnc1CN(CCc1ccc(OC)c(OC)c1)Cc1cc2ccc(C)cc2[nH]c1=O | inconclusive: 20 µM [inhibitor, single point] | –
O=[N+]([O-])c1ccc(CSc2nnc(Cc3ccccc3)o2)cc1 | active: 44.7 µM | –
O=C(Nc1nc(-c2cccs2)cs1)c1ccco1 | inconclusive: 44.7 µM [inhibitor, partial curve, poor fit] | –
OCc1ccccc1OCCCN1CCC(Cc2ccccc2)CC1 | active: 35.5 µM | –
CN1CCc2c(sc3c2C(=O)NC(c2ccccn2)N3)C1 (stereo unspecified) | active: 25.1 µM | –
Cc1ccc(NC2c3ncccc3C(=O)N2C2CCCCC2)cc1C (stereo unspecified) | – | inconclusive: -55.9% [inhibitor]
CCOC(=O)c1sc(SC)nc1N | – | inactive: -2.13% [at 102 µM]
CCOC(=O)c1c(Nc2cccc(C(=O)OC)c2)nnc(-c2ccccc2)c1-c1ccccc1 | inconclusive: 0.708 µM [inhibitor, full curve, poor fit] | –
O=C(O)/C=C/c1cn(-c2ccccc2)nc1-c1cccc([N+](=O)[O-])c1 | inconclusive: 70.8 µM [inhibitor, single point] | –
Cc1cccc(NC(=O)CCNS(=O)(=O)c2cc(Br)cnc2N)c1C | inconclusive: 39.8 µM [inhibitor, single point] | –
CCN1CCN(c2ncc3c(n2)CC(c2cc(OC)c(OC)c(OC)c2)CC3=O)CC1 (stereo unspecified) | – | inconclusive: -65.7% [inhibitor]
NC(=O)C[n+]1cccc(CNC(=O)c2ccc(OC(F)F)cc2)c1 | inconclusive: 89.1 µM [inhibitor, single point] | –
O=C(N/N=C/c1oc(O)c2ccccc12)c1ccccc1O | active: 35.5 µM | –
O=C(CSc1nnc(NC(=O)c2c(F)cccc2F)s1)NCc1ccc(F)cc1 | inconclusive: 89.1 µM [inhibitor, single point] | –
C[C@@H]1C[C@H]2[C@@H]3CCC4=CC(=O)C=C[C@]4(C)[C@@]3(Cl)[C@@H](O)C[C@]2(C)[C@@]1(OC(=O)c1ccco1)C(=O)CCl | – | inactive: -8.71%
